“And” between values parts separate entries of the source, which are not always exact repeats. Equal values may be shown once. Inconclusive results, whose numbers are uncertain, are shown with a selection of clear calls. For part of these data: Where the call is inconclusive, the potency comes from a doubtful curve fit. The source made the active and inactive calls. Unless noted, the call rests on the fitted dose curve; in most records, active means well fitted curve in the direction sought with a large enough effect in the repeat runs; inconclusive means weak or mixed curves; inactive means no such curve, though single readings can be large; an effect the other way counts as inactive or inconclusive.
What was measured:
[1] = molecular target: Peroxisome proliferator-activated receptor gamma (Homo sapiens) (UniProt P37231); experiment: qHTS assay to identify small molecule antagonists of the peroxisome proliferator-activated receptor gamma (PPARg) signaling pathway (AID 743191; calls by dose curve; further: on the % scale 0 is the no-effect control and ±100 the full control effect; nearly all actives have a fitted effect of over 30% in size); details: HEK293H PPARg-UAS-bla, beta-lactamase ratio, antagonist, 17 h; ratio activity, negative = inhibition: at 62.6 µM (top of the series) unless noted
Method in brief: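 Beta-lactamase reporter under UAS control in HEK293H PPARg-bla cells; compound treatment 17 h at 37C. Read-out: fluorescence intensity after 1 h room-temperature incubation with LiveBLAzer B/G FRET substrate.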

[2] = qHTS assay to identify small molecule antagonists of the peroxisome proliferator-activated receptor delta (PPARd) signaling pathway - cell viability counter screen (AID 743213); details: PPARd-bla HEK293H viability, CellTiter-Glo luminescence, 17 h; viability change, negative = cytotoxic: at 62 µM (top of the series) unless noted; further: nearly all actives have a fitted effect of over 50% in size; further: potency means the concentration at half of the fitted maximal effect
Method in brief: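 Agonist-stimulated (L165041, 300 nM final) HEK293H PPARd UAS-bla cells are exposed to compounds for 17 h at 37 C, and ATP-based luminescence (CellTiter-Glo) from the same wells reports cytotoxicity.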

[3] = qHTS assay to identify small molecule antagonists of the peroxisome proliferator-activated receptor gamma (PPARg) signaling pathway - cell viability counter screen (AID 743194); details: PPARg-bla HEK293H viability, CellTiter-Glo luminescence, 17 h; Potency: co-treated with 50 nM rosiglitazone unless noted; activity change, negative = cytotoxicity: at 62.6 µM (top of the series), co-treated with 50 nM rosiglitazone unless noted; further: nearly all actives have a fitted effect of over 55% in size; further: potency means the concentration at half of the fitted maximal effect
Method in brief: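 Viability was measured as CellTiter-Glo luminescence in GeneBLAzer PPARg UAS-bla HEK293H cells. These cells had been exposed 17 h at 37 C to compounds together with rosiglitazone at 50 nM final, with the beta-lactamase readout taken in the same wells.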

[4] = qHTS assay for small molecule activators of the heat shock response signaling pathway (AID 743210; active means well fitted activation curve with a large enough effect in the signal ratio in the repeat runs, with a control signal flat, not every such curve was filed as active; inconclusive means weak or mixed curves; the % refers to the signal ratio;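 further: HeLa cells with beta-lactamase reporter driven by heat shock elements; on the % scale 0 is the no-effect control and ±100 the full control effect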); details: HeLa HSE-bla reporter, beta-lactamase ratio, 5 h; activation: at 62.6 µM (top of the series)
Method in brief: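 Fluorescence from a cleaved B/G FRET substrate (2.5 h, room temp) reports HSE-driven beta-lactamase in HeLa cells treated 5 h at 37 C with DMSO-dissolved compounds.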

[5] = molecular target: Peroxisome proliferator-activated receptor delta (Homo sapiens) (UniProt Q03181); experiment: qHTS assay to identify small molecule agonists of the peroxisome proliferator-activated receptor delta (PPARd) signaling pathway (AID 743212; calls by dose curve;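 further: HEK293H cells with PPARd UAS beta-lactamase reporter GeneBLAzer system; potency means the concentration at half of the fitted maximal effect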); details: HEK293H PPARd-UAS-bla, beta-lactamase FRET ratio, 17 h; activation: at 62.6 µM (top of the series) unless noted
Method in brief: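 Steps: seed PPARd-bla HEK293H cells; incubate 5 h, 37 C, 5% CO2; add compounds in DMSO; incubate, 37 C; add LiveBLAzer B/G FRET substrate; hold 2 h at room temperature; measure fluorescence.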

[6] = molecular target: Peroxisome proliferator-activated receptor delta (Homo sapiens) (UniProt Q03181); experiment: qHTS assay to identify small molecule antagonists of the peroxisome proliferator-activated receptor delta (PPARd) signaling pathway (AID 743215; active means well fitted inhibition curve with a large enough effect in the signal ratio in the repeat runs, not every such curve was filed as active; inconclusive means weak or mixed curves, or effect the other way; inactive means no such curve, though single readings can be large or run the other way; the % refers to the signal ratio; further: on the % scale 0 is the no-effect control and ±100 the full control effect); details: HEK293H PPARd-UAS-bla, beta-lactamase FRET ratio, antagonist, 17 h; ratio activity, negative = inhibition: at 62 µM (top of the series) unless noted
Method in brief: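 Fluorescence from cleaved LiveBLAzer B/G FRET substrate (2 h, room temperature) reports PPARd-driven beta-lactamase in HEK293H UAS-bla cells. Cells had been treated 17 h at 37 C with compound plus 300 nM final L165041.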

[7] = qHTS assay to identify small molecule agonists of the farnesoid-X-receptor (FXR) signaling pathway - cell viability counter screen (AID 743218); details: FXR-bla HEK293T viability, CellTiter-Glo luminescence, 16 h; viability change, negative = cytotoxic: at 62.6 µM (top of the series) unless noted; further: potency means the concentration at half of the fitted maximal effect; nearly all actives have a fitted effect of over 45% in size
Method in brief: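 Readout: CellTiter-Glo luminescence, 30 min RT, multiplexed after the FXR-bla FRET reading. HEK 293T FXR-UAS-bla cells received compound 5 h post-plating and were incubated 16 h at 37 C.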

[8] = qHTS assay to identify small molecule antagonists of the vitamin D receptor (VDR) signaling pathway - cell viability counter screen (AID 743225); details: VDR-bla HEK293T viability, CellTiter-Glo luminescence, 16 h; viability change, negative = cytotoxic: at 61 µM (top of the series) unless noted; further: potency means the concentration at half of the fitted maximal effect; nearly all actives have a fitted effect of over 50% in size
Method in brief: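 VDR-bla HEK 293T cells, 4 h pre-incubation at 37C, then compound plus 1-alpha,25-dihydroxyvitamin D3 (3 nM final) for 16 h. After the beta-lactamase FRET read, CellTiter-Glo was added to the same wells; luminescence after 30 min at room temperature.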

[9] = molecular target: Bile acid receptor (Homo sapiens) (UniProt Q96RI1); experiment: qHTS assay to identify small molecule agonists of the farnesoid-X-receptor (FXR) signaling pathway (AID 743220; active means well fitted activation curve with a large enough effect in the signal ratio in the repeat runs, not every such curve was filed as active; inconclusive means weak or mixed curves, or effect the other way; the % refers to the signal ratio; further: on the % scale 0 is the no-effect control and ±100 the full control effect); details: HEK293T FXR-UAS-bla, beta-lactamase FRET ratio, 16 h; activation: at 62.6 µM (top of the series) unless noted
Method in brief: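 FXR-UAS-bla HEK 293T cells carrying a UAS-driven beta-lactamase reporter were plated for 5 h at 37C/5% CO2, then exposed to DMSO-dissolved Tox21 10K compounds for 16 h at 37C. A LiveBLAzer B/G FRET substrate was loaded for 2 h at room temperature before fluorescence reading.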

[10] = molecular target: Vitamin D3 receptor (Homo sapiens) (UniProt P11473); experiment: qHTS assay to identify small molecule antagonists of the vitamin D receptor (VDR) signaling pathway (AID 743223; active means well fitted inhibition curve with a large enough effect in the signal ratio in the repeat runs, not every such curve was filed as active; inconclusive means weak or mixed curves, or effect the other way; inactive means no such curve, though single readings can be large or run the other way; the % refers to the signal ratio; further: on the % scale 0 is the no-effect control and ±100 the full control effect); details: VDR-UAS-bla HEK293T, beta-lactamase FRET ratio, 16 h
Method in brief: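 VDR-bla cells were plated, incubated 4 h at 37C, then given compound and 1alpha,25-dihydroxyvitamin D3 (3 nM final). After 16 h at 37C, LiveBLAzer B/G FRET substrate was added for 2 h at room temperature and fluorescence read.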

[11] = molecular target: Vitamin D3 receptor (Homo sapiens) (UniProt P11473); experiment: qHTS assay to identify small molecule agonists of the vitamin D receptor (VDR) signaling pathway (AID 743222; calls by dose curve; further: on the % scale 0 is the no-effect control and ±100 the full control effect); details: HEK293T VDR-UAS-bla, beta-lactamase FRET ratio, 16 h; activation: at 63.5 µM (top of the series) unless noted
Method in brief: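 Following 4 h attachment at 37C, VDR-bla cells (2,000 per well) received DMSO-dissolved compounds or controls. After 16 h incubation, LiveBLAzer B/G FRET substrate was added and fluorescence read 2 h later at room temperature.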

[12] = qHTS assay for small molecule agonists of the antioxidant response element (ARE) signaling pathway (AID 743202; active means well fitted activation curve with a large enough effect in the signal ratio in the repeat runs, not every such curve was filed as active; inconclusive means weak or mixed curves, or effect the other way; inactive means no such curve, though single readings can be large or run the other way; the % refers to the signal ratio; further: potency means the concentration at half of the fitted maximal effect); details: HepG2 ARE-bla reporter, beta-lactamase FRET, 16 h; activation: at 73.3 µM (top of the series) unless noted
Method in brief: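 Beta-lactamase reporter activity, read as fluorescence intensity, reflects ARE/Nrf2 pathway induction in HepG2 cells after 16 h compound exposure at 37 C; substrate loading was 2 h at room temperature.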

[13] = molecular target: Bile acid receptor (Homo sapiens) (UniProt Q96RI1); experiment: qHTS assay to identify small molecule antagonists of the farnesoid-X-receptor (FXR) signaling pathway (AID 743217; active means well fitted inhibition curve with a large enough effect in the signal ratio in the repeat runs, not every such curve was filed as active; inconclusive means weak or mixed curves, or effect the other way; inactive means no such curve, though single readings can be large or run the other way; the % refers to the signal ratio; further: on the % scale 0 is the no-effect control and ±100 the full control effect); details: HEK293T FXR-UAS-bla, beta-lactamase ratio, CDCA-stimulated, 16 h; activity change, negative = inhibition: at 62.6 µM (top of the series) unless noted
Method in brief: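 FRET fluorescence after 2 h room-temperature LiveBLAzer loading gives the readout. Prior step: FXR-bla HEK 293T cells, seeded and incubated 5 h, received test compounds plus 50 uM final CDCA for 16 h at 37 °C.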

[14] = activity change, negative = inhibition: at 61 µM (top of the series) unless noted
Tags describe the fitted curve by direction and shape.

Chain of UniProt Q03181 (Q03181 whole entry, looked up): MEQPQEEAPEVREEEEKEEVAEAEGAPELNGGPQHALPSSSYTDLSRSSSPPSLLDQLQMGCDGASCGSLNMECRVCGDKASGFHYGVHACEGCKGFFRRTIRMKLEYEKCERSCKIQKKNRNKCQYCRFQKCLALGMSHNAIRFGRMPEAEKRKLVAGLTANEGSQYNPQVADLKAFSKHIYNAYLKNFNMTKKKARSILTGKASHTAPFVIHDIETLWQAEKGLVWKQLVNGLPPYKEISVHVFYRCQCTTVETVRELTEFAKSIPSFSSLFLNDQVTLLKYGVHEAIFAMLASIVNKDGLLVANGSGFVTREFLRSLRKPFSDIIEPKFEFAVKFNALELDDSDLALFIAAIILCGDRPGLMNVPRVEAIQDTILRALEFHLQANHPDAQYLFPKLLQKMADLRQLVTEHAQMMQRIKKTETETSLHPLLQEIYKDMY
Chain of UniProt P37231 (P37231 whole entry, looked up): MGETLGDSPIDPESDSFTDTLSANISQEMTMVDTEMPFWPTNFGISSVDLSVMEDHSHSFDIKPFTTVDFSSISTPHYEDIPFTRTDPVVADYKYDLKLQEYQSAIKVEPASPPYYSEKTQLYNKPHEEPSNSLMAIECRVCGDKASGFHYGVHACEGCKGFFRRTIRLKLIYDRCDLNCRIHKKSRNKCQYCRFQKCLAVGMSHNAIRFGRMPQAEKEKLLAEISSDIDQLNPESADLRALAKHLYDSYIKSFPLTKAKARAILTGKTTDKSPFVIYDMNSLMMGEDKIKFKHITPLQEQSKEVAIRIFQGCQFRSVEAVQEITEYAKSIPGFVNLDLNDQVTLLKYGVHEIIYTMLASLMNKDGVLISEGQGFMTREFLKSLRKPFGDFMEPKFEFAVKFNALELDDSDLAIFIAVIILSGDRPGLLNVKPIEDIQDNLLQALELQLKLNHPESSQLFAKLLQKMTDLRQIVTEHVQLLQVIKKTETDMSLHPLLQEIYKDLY
Chain of UniProt P11473 (P11473 whole entry, looked up): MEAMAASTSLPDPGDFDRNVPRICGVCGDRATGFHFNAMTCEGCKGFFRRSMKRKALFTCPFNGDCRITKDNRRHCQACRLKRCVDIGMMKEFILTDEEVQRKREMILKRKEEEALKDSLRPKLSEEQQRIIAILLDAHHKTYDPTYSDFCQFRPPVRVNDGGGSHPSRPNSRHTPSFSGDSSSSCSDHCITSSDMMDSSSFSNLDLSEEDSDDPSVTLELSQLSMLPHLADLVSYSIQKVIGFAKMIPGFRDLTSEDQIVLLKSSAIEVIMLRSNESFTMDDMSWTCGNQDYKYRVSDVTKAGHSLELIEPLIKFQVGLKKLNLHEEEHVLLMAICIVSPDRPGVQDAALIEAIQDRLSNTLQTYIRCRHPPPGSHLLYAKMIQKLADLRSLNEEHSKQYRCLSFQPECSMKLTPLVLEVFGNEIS
Chain of UniProt Q96RI1 (Q96RI1 whole entry, looked up): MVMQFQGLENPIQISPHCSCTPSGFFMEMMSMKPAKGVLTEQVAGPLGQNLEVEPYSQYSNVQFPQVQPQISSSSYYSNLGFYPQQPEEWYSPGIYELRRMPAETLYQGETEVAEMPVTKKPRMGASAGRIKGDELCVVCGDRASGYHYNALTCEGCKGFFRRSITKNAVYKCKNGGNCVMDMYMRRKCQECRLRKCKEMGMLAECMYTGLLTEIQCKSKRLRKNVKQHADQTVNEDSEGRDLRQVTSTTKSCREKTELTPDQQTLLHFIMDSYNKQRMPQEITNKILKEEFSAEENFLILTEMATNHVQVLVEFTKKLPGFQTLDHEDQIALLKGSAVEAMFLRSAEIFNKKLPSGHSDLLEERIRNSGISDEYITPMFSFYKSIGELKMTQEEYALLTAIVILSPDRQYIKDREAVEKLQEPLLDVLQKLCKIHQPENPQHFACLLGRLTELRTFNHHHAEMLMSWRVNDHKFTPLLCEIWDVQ

SMILES: ClCCCCBr
- Potency [1]: inactive
- Potency [2]: inactive

SMILES: CN(N=O)c1ccc([N+](=O)[O-])cc1
- Potency [3]: inactive
- Potency [4]: inactive
- Potency [5]: inconclusive: 0.549 µM [rising, partial curve]
- ratio activity, negative = inhibition [6]: inconclusive: 29.6%
- Potency [7]: inconclusive: 11 µM [cytotoxic, partial curve, poor fit]
- Potency [8]: inconclusive: 0.0347 µM [cytotoxic, full curve, poor fit]

SMILES: Cc1cnc2c(C(=O)O)c(Cl)ccc2c1
- Potency [1]: inactive
- Potency [9]: inactive

SMILES: CCOS(=O)(=O)OCC
- Potency [1]: inactive
- activity change, negative = inhibition [10, 14]: inconclusive: 13.5%
- activity change, negative = inhibition ([10]; at 61 µM (top of the series)): inactive: 14.7%
- Potency [8]: inconclusive: 2.19 µM [cytotoxic, single point]

SMILES: NCCOS(=O)(=O)O
- Potency [1]: inactive
- Potency [11]: inactive

SMILES: Cn1sc(Cl)cc1=O
- Potency [3]: inconclusive: 61.6 µM [cytotoxic, single point]
- activation [12]: inconclusive: -31.1%
- activation [4]: inconclusive: 6.98%
- Potency [13]: inactive
- Potency [11]: inactive

SMILES: CCCCN=C=O
- Potency [3]: inconclusive: 54.3 µM [rising, single point]
- activation [12]: inconclusive: 12.8%
- Potency [10, 14]: inactive

SMILES: N#CN
- Potency [1]: inactive
- Potency [4]: inactive
- ratio activity, negative = inhibition [6]: inconclusive: 12.3% [at 226 µM]
- Potency [10, 14]: inactive

SMILES: O.O.O.O.O.O.O.O=S(=O)([O-])[O-].[Co+2]
- Potency [3]: inconclusive: 5.53 µM [cytotoxic, partial curve, poor fit]
- Potency [12]: inconclusive: 21.8 µM [falling, partial curve, poor fit]
- Potency [7]: inconclusive: 4.93 µM [rising, full curve, poor fit]

SMILES: O=S(=O)(O)O
- Potency [3]: inconclusive: 42.7 µM [rising, partial curve, poor fit]
- Potency [12]: inconclusive: 9.69 µM [falling, partial curve, poor fit]

SMILES: CC(C)N1C(=O)c2ccccc2NS1(=O)=O
- ratio activity, negative = inhibition [1]: inconclusive: 12.9%
- Potency [2]: inconclusive: 490 nM [cytotoxic, single point] and inactive
- activity change, negative = inhibition [10, 14]: inconclusive: 25.4% and inconclusive: 33.3%
